In patent US20190367516A1 (Bayer Pharma Aktiengesellschaft, priority 2015, published 2019) one finds Emax data, which are given here for 24 compounds.

In the assay the target is T1, human M2 receptor (Homo sapiens, UniProt P08172).
T1 sequence (P08172 1-466): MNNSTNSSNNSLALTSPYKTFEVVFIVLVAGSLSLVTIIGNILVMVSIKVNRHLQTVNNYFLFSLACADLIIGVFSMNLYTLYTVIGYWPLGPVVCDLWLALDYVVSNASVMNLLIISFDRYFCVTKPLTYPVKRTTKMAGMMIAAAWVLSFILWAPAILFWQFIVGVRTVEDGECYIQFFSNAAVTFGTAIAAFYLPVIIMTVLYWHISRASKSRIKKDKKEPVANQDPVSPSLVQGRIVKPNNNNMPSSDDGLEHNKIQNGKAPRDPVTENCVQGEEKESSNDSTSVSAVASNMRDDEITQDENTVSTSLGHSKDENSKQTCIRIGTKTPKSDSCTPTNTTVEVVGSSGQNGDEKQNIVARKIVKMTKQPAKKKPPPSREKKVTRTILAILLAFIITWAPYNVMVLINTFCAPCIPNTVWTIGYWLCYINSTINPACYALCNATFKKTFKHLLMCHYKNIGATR
As to conditions: read-out: Efficiency, M2-GIRK1/4 activation test; boosting of the acetylcholine effect at an EC20 acetylcholine concentration.

As to `CCC(NC(=O)c1cn(-c2ccc(F)cc2F)c2nc(N3CCC(O)C3)ccc2c1=O)C(F)(F)F` (stereo in doubt) [Example 218, 1-(2,4-Difluorophenyl)-7-[3-hydroxypyrrolidin-1-yl]-4-oxo-N-[(2S)-1,1,1-trifluorobutan-2-yl]-1,4-dihydro-1,8-naphthyridine-3-carboxamide], the Emax was 93.5%.

In the case of `CC(C)(C)C(NC(=O)c1cn(-c2c(F)cc(F)cc2F)c2nc(N3CCNC3=O)ccc2c1=O)C(F)(F)F` (stereo in doubt) [Example 360, 4-Oxo-7-(2-oxoimidazolidin-1-yl)-N-[(2S)-1,1,1-trifluoro-3,3-dimethylbutan-2-yl]-1-(2,4,6-trifluorophenyl)-1,4-dihydro-1,8-naphthyridine-3-carboxamide], the Emax was determined as 100%.

In the case of `O=C(NC12CC3CC(CC(C3)C1)C2)c1cn(-c2ccc(F)cc2F)c2nc(N3CCCC(F)(F)C3)ccc2c1=O` [Example 1, 1-(2,4-Difluorophenyl)-7-(3,3-difluoropiperidin-1-yl)-4-oxo-N-(tricyclo[3.3.1.1^3,7]dec-1-yl)-1,4-dihydro-1,8-naphthyridine-3-carboxamide], the Emax is 97.5%.

`O=C(NC12CC3CC(CC(C3)C1)C2)c1cn(-c2ccc(F)cc2F)c2nc(N3CC4C(C3)C4(F)F)ccc2c1=O` (stereo not drawn) [Example 2, 7-(6,6-Difluoro-3-azabicylco[3.1.0]hex-3-yl)-1-(2,4-difluorophenyl)-4-oxo-N-(tricyclo[3.3.1.1^3,7]dec-1-yl)-1,4-dihydro-1,8-naphthyridine-3-carboxamide]: the Emax turned out to be 100%.

For the compound `O=C(NC12CC3CC(CC(C3)C1)C2)c1cn(-c2ccc(F)cc2F)c2nc(N3CC[C@@H](F)[C@H](O)C3)ccc2c1=O` [Example 3, 1-(2,4-Difluorophenyl)-7-[(3R,4R)-4-fluoro-3-hydroxypiperidin-1-yl]-4-oxo-N-(tricyclo[3.3.1.1^3,7]dec-1-yl)-1,4-dihydro-1,8-naphthyridine-3-carboxamide], the Emax was 99.8%.

For the compound `COC(=O)N1CCN(c2ccc3c(=O)c(C(=O)NC45CC6CC(CC(C6)C4)C5)cn(-c4ccc(F)cc4F)c3n2)CC1` [Example 4, Methyl 4-[8-(2,4-difluorophenyl)-5-oxo-6-(tricyclo[3.3.1.1^3,7]dec-1-ylcarbamoyl)-5,8-dihydro-1,8-naphthyridin-2-yl]piperazine-1-carboxylate], the Emax turned out to be 99.8%.

On to `O=C(NC12CC3CC(CC(C3)C1)C2)c1cn(-c2ccc(F)cc2F)c2nc(N3CCC(F)CC3)ccc2c1=O` [Example 5, 1-(2,4-Difluorophenyl)-7-(4-fluoropiperidin-1-yl)-4-oxo-N-(tricyclo[3.3.1.1^3,7]dec-1-yl)-1,4-dihydro-1,8-naphthyridine-3-carboxamide], for which the Emax was 98.7%.

Turning to `O=C(NC12CC3CC(CC(C3)C1)C2)c1cn(-c2ccc(F)cc2F)c2nc(N3CCC(O)(O)C(F)(F)C3)ccc2c1=O` [Example 6, 7-(3,3-Difluoro-4,4-dihydroxypiperidin-1-yl)-1-(2,4-difluorophenyl)-4-oxo-N-(tricyclo[3.3.1.1^3,7]dec-1-yl)-1,4-dihydro-1,8-naphthyridine-3-carboxamide], the Emax turned out to be 98.8%.

As for `O=C(NC12CC3CC(CC(C3)C1)C2)c1cn(-c2ccc(F)cc2F)c2nc(N3CCC(O)(O)[C@H](F)C3)ccc2c1=O` [Example 7, 1-(2,4-Difluorophenyl)-7-[(3R)-3-fluoro-4,4-dihydroxypiperidin-1-yl]-4-oxo-N-(tricyclo[3.3.1.1^3,7]dec-1-yl)-1,4-dihydro-1,8-naphthyridine-3-carboxamide], the Emax was 100%.

Turning to `O=C(NC12CC3CC(CC(C3)C1)C2)c1cn(-c2ccc(F)cc2F)c2nc(N3CCCCC3)ccc2c1=O` [Example 8, 1-(2,4-Difluorophenyl)-4-oxo-7-(piperidin-1-yl)-N-(tricyclo[3.3.1.1^3,7]dec-1-yl)-1,4-dihydro-1,8-naphthyridine-3-carboxamide], the Emax is 98%.

`N#CC1CCCN(c2ccc3c(=O)c(C(=O)NC45CC6CC(CC(C6)C4)C5)cn(-c4ccc(F)cc4F)c3n2)C1` (stereo not drawn) [Example 10, 7-(3-Cyanopiperidin-1-yl)-1-(2,4-difluorophenyl)-4-oxo-N-(tricyclo[3.3.1.1^3,7]dec-1-yl)-1,4-dihydro-1,8-naphthyridine-3-carboxamide]: the Emax is 98.5%.

`C[C@@H]1C[C@H](F)CN1c1ccc2c(=O)c(C(=O)NC34CC5CC(CC(C5)C3)C4)cn(-c3ccc(F)cc3F)c2n1` [Example 11, 1-(2,4-Difluorophenyl)-7-[(2R,4S)-4-fluoro-2-methylpyrrolidin-1-yl]-4-oxo-N-(tricyclo[3.3.1.1^3,7]dec-1-yl)-1,4-dihydro-1,8-naphthyridine-3-carboxamide]: the Emax is 99.3%.

In the case of `NC(=O)N1CCN(c2ccc3c(=O)c(C(=O)NC45CC6CC(CC(C6)C4)C5)cn(-c4ccc(F)cc4F)c3n2)CC1` [Example 12, 7-(4-Carbamoylpiperazin-1-yl)-1-(2,4-difluorophenyl)-4-oxo-N-(tricyclo[3.3.1.1^3,7]dec-1-yl)-1,4-dihydro-1,8-naphthyridine-3-carboxamide], the Emax was found to be 95%.

`O=C(NC12CC3CC(CC(C3)C1)C2)c1cn(-c2ccc(F)cc2F)c2nc(N3CCC4(C3)CC4(F)F)ccc2c1=O` (stereo not drawn) [Example 13, 7-(1,1-Difluoro-5-azaspiro[2.4]hept-5-yl)-1-(2,4-difluorophenyl)-4-oxo-N-(tricyclo[3.3.1.1^3,7]dec-1-yl)-1,4-dihydro-1,8-naphthyridine-3-carboxamide]: the Emax amounted to 95.8%.

As to `O=C(NC12CC3CC(CC(C3)C1)C2)c1cn(-c2ccc(F)cc2F)c2nc(N3CCCC[C@H]3CO)ccc2c1=O` [Example 15, 1-(2,4-Difluorophenyl)-7-[(2S)-2-(hydroxymethyl)piperidin-1-yl]-4-oxo-N-(tricyclo[3.3.1.1^3,7]dec-1-yl)-1,4-dihydro-1,8-naphthyridine-3-carboxamide], the Emax amounted to 90.5%.

Turning to `O=C(NC12CC3CC(CC(C3)C1)C2)c1cn(-c2ccc(F)cc2F)c2nc(N3CCC(F)(CO)CC3)ccc2c1=O` [Example 16, 1-(2,4-Difluorophenyl)-7-[4-fluoro-4-(hydroxymethyl)piperidin-1-yl]-4-oxo-N-(tricyclo[3.3.1.1^3,7]dec-1-yl)-1,4-dihydro-1,8-naphthyridine-3-carboxamide], the Emax amounted to 97.3%.

For the compound `O=C(NC12CC3CC(CC(C3)C1)C2)c1cn(-c2ccc(F)cc2F)c2nc(N3CCCC(CCO)C3)ccc2c1=O` (stereo not drawn) [Example 17, 1-(2,4-Difluorophenyl)-7-[3-(2-hydroxyethyl)piperidin-1-yl]-4-oxo-N-(tricyclo[3.3.1.1^3,7]dec-1-yl)-1,4-dihydro-1,8-naphthyridine-3-carboxamide], the Emax was 97.3%.

For `O=C1CN(c2ccc3c(=O)c(C(=O)NC45CC6CC(CC(C6)C4)C5)cn(-c4ccc(F)cc4F)c3n2)CCN1` [Example 18, 1-(2,4-Difluorophenyl)-4-oxo-7-(3-oxopiperazin-1-yl)-N-(tricyclo[3.3.1.1^3,7]dec-1-yl)-1,4-dihydro-1,8-naphthyridine-3-carboxamide], the Emax came to 97.3%.

As to `CO[C@@H]1CCN(c2ccc3c(=O)c(C(=O)NC45CCC(C)(CC4)CC5)cn(-c4ccc(F)cc4F)c3n2)C1` [Example 19, 1-(2,4-Difluorophenyl)-7-[(3R)-3-methoxypyrrolidin-1-yl]-N-(4-methylbicyclo[2.2.2]oct-1-yl)-4-oxo-1,4-dihydro-1,8-naphthyridine-3-carboxamide], the Emax was 95%.

Consider `CC12CCC(NC(=O)c3cn(-c4ccc(F)cc4F)c4nc(N5CC[C@@H](O)C5)ccc4c3=O)(CC1)CC2` [Example 20, 1-(2,4-Difluorophenyl)-7-[(3R)-3-hydroxypyrrolidin-1-yl]-N-(4-methylbicyclo[2.2.2]oct-1-yl)-4-oxo-1,4-dihydro-1,8-naphthyridine-3-carboxamide], for which the Emax amounted to 98.4%.

With `CC(C)(NC(=O)c1cn(-c2ccc(F)cc2F)c2nc(N3CC[C@@H](O)C3)ccc2c1=O)c1c(F)cccc1F` [Example 21, 1-(2,4-Difluorophenyl)-N-[2-(2,6-difluorophenyl)propan-2-yl]-7-[(3R)-3-hydroxypyrrolidin-1-yl]-4-oxo-1,4-dihydro-1,8-naphthyridine-3-carboxamide], the Emax was found to be 100%.

As for `CO[C@@H]1CCN(c2ccc3c(=O)c(C(=O)NC(C)(C)c4c(F)cccc4F)cn(-c4ccc(F)cc4F)c3n2)C1` [Example 22, 1-(2,4-Difluorophenyl)-N-[2-(2,6-difluorophenyl)propan-2-yl]-7-[(3R)-3-methoxypyrrolidin-1-yl]-4-oxo-1,4-dihydro-1,8-naphthyridine-3-carboxamide], the Emax was 97.7%.

Turning to `CC[C@@H](NC(=O)c1cn(-c2ccc(F)cc2F)c2nc(NCCF)ccc2c1=O)C(F)(F)F` [Example 27, 1-(2,4-Difluorophenyl)-7-[(2-fluoroethyl)amino]-4-oxo-N-[(2R)-1,1,1-trifluorobutan-2-yl]-1,4-dihydro-1,8-naphthyridine-3-carboxamide], the Emax worked out at 97.7%.

For the compound `CC[C@@H](NC(=O)c1cn(-c2ccc(F)cc2F)c2nc(N3CC4C(C3)C4(F)F)ccc2c1=O)C(F)(F)F` (stereo partly drawn) [Example 28, 7-(6,6-Difluoro-3-azabicyclo[3.1.0]hex-3-yl)-1-(2,4-difluorophenyl)-4-oxo-N-[(2R)-1,1,1-trifluorobutan-2-yl]-1,4-dihydro-1,8-naphthyridine-3-carboxamide], the Emax stood at 100%.
